# Among all 280,000 compounds or so, about 100 (0.036%) were called active. This list was built around the results that the source calls inconclusive (neither active nor inactive); the mix of calls is not that of the screen. The call rests on the fitted dose curve; in most records, active means well fitted inhibition curve with a large enough effect in the signal ratio, with a control signal flat (not every such curve was filed as active); inconclusive means small, poorly fitted or top-dose-only effect, or effect the other way, or a change in a side signal; inactive means no such curve, though single readings can be large or run the other way; the % refers to the signal ratio. Potencies of inconclusive entries are doubtful fits and often do not repeat. “Side channel” marks fits to a control or component signal instead of the main read-out.
# Target: Muscleblind-like protein 1 (Homo sapiens) (UniProt Q9NR56)
# Chain of UniProt Q9NR56 (Q9NR56 whole entry, looked up): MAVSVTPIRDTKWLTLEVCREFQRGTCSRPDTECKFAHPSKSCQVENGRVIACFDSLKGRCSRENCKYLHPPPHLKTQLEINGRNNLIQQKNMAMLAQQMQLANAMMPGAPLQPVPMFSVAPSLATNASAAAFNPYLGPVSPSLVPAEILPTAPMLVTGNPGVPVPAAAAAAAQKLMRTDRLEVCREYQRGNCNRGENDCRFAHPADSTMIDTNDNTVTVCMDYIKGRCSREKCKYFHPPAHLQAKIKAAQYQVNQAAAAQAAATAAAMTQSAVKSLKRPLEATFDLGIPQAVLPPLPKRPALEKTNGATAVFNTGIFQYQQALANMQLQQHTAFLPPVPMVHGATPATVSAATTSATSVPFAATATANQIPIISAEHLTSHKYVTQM
# Assay: qHTS Assay for Inhibitors of MBNL1-poly(CUG) RNA binding
# Details: TR-FRET MBNL1-His/biotin-(CUG)12 binding, 665/545 ratio; activity change, negative = inhibition: at 57.5 µM (top of the series)
# Procedure, shortened: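 His-tagged MBNL1 binding to biotinylated (CUG)12 RNA was measured by TR-FRET using terbium anti-His antibody (0.055 ng/ul final) and streptavidin-XL665 (5 nM final). Compounds were titrated 92 nM to 58 uM; 60 min at room temperature.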
# On the % scale 0 is the no-effect control and ±100 the full control effect; potency means the concentration at half of the fitted maximal effect; tags describe the fitted curve by direction and shape or compound fluorescence and quenching.
Compound,Potency,"activity change, negative = inhibition"
CC(C(=O)N1CCCCC1)n1sc2ccccc2c1=O (configuration not stated),"inconclusive: 39.8 µM [quencher, side channel, single point]",–
CN1CCC(=NNc2ccc(S(=O)(=O)N3CCOCC3)cc2[N+](=O)[O-])CC1,"inconclusive: 10 µM [quencher, side channel, partial curve, poor fit]",–
CN(C)/C=C/C1=C([N+](=O)[O-])C(c2cccc([N+](=O)[O-])c2)NC(=O)N1 (configuration not stated),"inconclusive: 25.1 µM [quencher, single point]",–
CC(NS(C)(=O)=O)C(c1cccs1)N1CCN(c2ccc(F)cc2)CC1 (configuration not stated),"inconclusive: 39.8 µM [quencher, side channel, single point]",–
COc1ccccc1-c1nnc(NC(=O)c2ccc(S(=O)(=O)N3CCOCC3)cc2)o1,inactive,–
CC(C)C1Oc2ccccc2N(CC(=O)N(Cc2ccncc2)Cc2ccco2)C1=O (configuration not stated),"inconclusive: 39.8 µM [quencher, side channel, single point]",–
COc1cc(/C=C2/SC(=S)N(CC(=O)NC(C)(C)C)C2=O)cc(OC)c1OC,"inconclusive: 12.6 µM [quencher, side channel, partial curve]",–
COc1cc2c(cc1OC)C(c1cc([N+](=O)[O-])ccc1O)NCC2 (configuration not stated),"inconclusive: 12.6 µM [quencher, side channel, partial curve]",–
CCN1CCN(CCc2nc3cc([N+](=O)[O-])ccc3n2C)CC1,"inconclusive: 15.8 µM [quencher, partial curve]",–
C/C(=N\Nc1ccc(F)cc1F)c1ccccc1O,inactive,–
CC(C)(CO)NC(=O)c1ccc2c(c1)C(=O)c1ccccc1-2,"inconclusive: 12.6 µM [quencher, side channel, partial curve]",–
O=C(NC(=S)Nc1ccccc1F)C1CCCCC1,inactive,–
COc1ccc2c(c1)C(=NNC(=O)c1ccccn1)c1cc(OC)ccc1-2,"inconclusive: 0.251 µM [fluorescent, side channel, full curve, poor fit]",–
COc1ccc(C2NC(=O)C(C#N)=C(S)N2c2ccccc2)cc1OC (configuration not stated),inactive,–
CCN1CCN(c2ccc(NC(=O)COc3ccc([N+](=O)[O-])cc3)cc2)CC1,"inconclusive: 12.6 µM [quencher, side channel, partial curve]",–
CCOC(=O)c1ccc2c(c1)N(CC(=O)N1CCCC1)C(=O)C(C)(C)O2,inactive,–
N#Cc1ccc2c(c1)C[C@]1(c3ccsc3)OC3=C(C(=O)OC4(CCCCC4)C3)C2O1,–,inactive: 6.3% [at 11.5 µM]
COc1cccc(-c2nc3n(n2)C(c2cccs2)C(C(=O)Nc2cccnc2)=C(C)N3)c1 (configuration not stated),"inconclusive: 3.16 µM [quencher, side channel, partial curve]",–
COc1ccc(C(=S)N2CCOCC2)cc1OC(=O)c1ccc([N+](=O)[O-])cc1,"inconclusive: 15.8 µM [quencher, side channel, partial curve]",–
COc1ccc(CN(C)C(c2ccccc2)c2nnnn2-c2ccccc2C)c(OC)c1C (configuration not stated),inactive,–
O=C(Cn1nnc2ccccc21)c1cccc([N+](=O)[O-])c1,"inconclusive: 25.1 µM [quencher, side channel, partial curve]",–

Compound,Potency,"activity change, negative = inhibition"
O=C(O)c1cc(N=Nc2c(O)ccc3ccccc23)cc(C(=O)O)c1,"inconclusive: 3.16 µM [quencher, side channel, partial curve]",–
COC(=O)CCCC1=CC2=CC(=O)C(C)(OC(=O)c3cccs3)C(=O)C2=CN1CCc1ccccn1 (configuration not stated),"inconclusive: 14.1 µM [quencher, side channel, partial curve]",–
Cc1cc2cc3c(cc2nc1SCC(=O)OC(C)C)OCO3,"inconclusive: 39.8 µM [fluorescent, single point]",–
CCOC(=O)C(=O)Nc1ccc(F)cc1,inactive,–
Cc1cccc(OCCCSc2nc3ccccc3[nH]2)c1,inactive,–
O=C(/C=C\c1ccco1)Nc1cc([N+](=O)[O-])ccc1F,"inconclusive: 0.126 µM [quencher, side channel, full curve, poor fit]",–
O=C(CSc1ccccc1Cl)c1ccco1,inactive,–
CC1(OC(=O)C2CCCC2)C(=O)C=C2C=C(c3ccsc3)N(Cc3ccccc3)C=C2C1=O (configuration not stated),"inconclusive: 22.4 µM [quencher, side channel, single point]",–
O=C(N/N=C/c1ccccn1)c1cc(-c2ccncc2)nc2ccccc12,"inconclusive: 15.8 µM [quencher, side channel, partial curve]",–
CC(C)OCCCn1c(-c2ccco2)nc2nc3ccccc3nc21,"inconclusive: 15.8 µM [quencher, side channel, partial curve]",–
CC(C)c1ccc(NC(=O)CCN2C(=O)c3ccc([N+](=O)[O-])cc3C2=O)cc1,"inconclusive: 0.794 µM [quencher, side channel, full curve, poor fit]",–
Cc1ccc([N+](=O)[O-])cc1N=Nc1c(C)[nH]n(C(N)=S)c1=O,"inconclusive: 17.8 µM [quencher, side channel, partial curve, poor fit]",–
COc1ccc(S(=O)(=O)Nc2ccc(O)c3ccccc23)cc1,"inconclusive: 12.6 µM [quencher, side channel, partial curve]",–
O=C(Nc1ccc2nc3n(c(=O)c2c1)CCCCC3)c1c(F)ccc([N+](=O)[O-])c1F,"inconclusive: 28.2 µM [quencher, side channel, single point]",–
COC(=O)c1c(NC(=O)C2COc3ccccc3O2)sc2c1CCN(Cc1ccccc1)C2 (configuration not stated),inactive,–
O=[N+]([O-])c1ccc(N2CCCCC2)cc1,"inconclusive: 28.2 µM [quencher, side channel, partial curve]",–
O=C(Cn1cnc([N+](=O)[O-])n1)NCCc1ccccc1,"inconclusive: 11.2 µM [quencher, side channel, partial curve]",–
CCCn1nc(C(=O)OCn2nnc3ccccc3c2=O)c2ccccc2c1=O,"inconclusive: 10 µM [fluorescent, side channel, partial curve]",–
CN(C)c1ccc(NC(=O)c2cccc([N+](=O)[O-])c2)c2ccccc12,"inconclusive: 14.1 µM [quencher, partial curve]",–
COc1ccc(NC(=S)N(CCC(C)C)C2CCN(C(C)C)CC2)cc1,inactive,–
O=C(CSCC(=O)NCc1ccco1)NCc1ccco1,"inconclusive: 8.91 µM [fluorescent, side channel, partial curve]",–

Compound,Potency,"activity change, negative = inhibition"
COc1ccc(/C=C/C(=O)c2cc3c(cc2N)OCO3)cc1,"inconclusive: 10 µM [quencher, side channel, partial curve]",–
COC(=O)c1ccccc1NC(=O)COC(=O)CO/N=C(\C)c1ccc2c(c1)OCO2,inactive,–
Cc1c(CNC2CCC(C)CC2)c(C(=O)O)c(C)n1Cc1ccccc1 (configuration not stated),"inconclusive: 158 µM [inhibitor, partial curve]",–
O=C(O)c1ccc(N2CCN(c3ccc(Cl)cc3)CC2)c([N+](=O)[O-])c1,"inconclusive: 12.6 µM [quencher, side channel, partial curve]",–
CCCNC1=C(N(C(C)=O)c2cccc(F)c2)C(=O)c2ccccc2C1=O,"inconclusive: 8.91 µM [quencher, side channel, partial curve]",–
CC1CCN(C(=O)CN2C(=O)C(=O)c3ccccc32)CC1,"inconclusive: 14.1 µM [quencher, side channel, partial curve]",–
O=C(O)C1CCCN1c1ncnc2c1oc1ccccc12 (configuration not stated),"inconclusive: 39.8 µM [quencher, side channel, single point]",–
CC1CCN(C(=O)COC(=O)c2cc(Cl)cc(Cl)c2N)CC1,inactive,–
CCOC(=O)c1ccc(NC(=O)C(=O)NCc2ccncc2)cc1,"inconclusive: 11.2 µM [fluorescent, side channel, full curve, poor fit]",–
CCc1c(C(=O)OC)nnc2cc(C)nn12,"inconclusive: 17.8 µM [quencher, side channel, single point]",–
Cc1ncc(CO)c(/C=N/NC(=O)c2cc(O)c(O)c(O)c2)c1O,"inconclusive: 17.8 µM [quencher, side channel, partial curve]",–
Oc1ccc(Br)cc1-c1nc2cnccn2c1NC1CCCC1,inactive,–
CC(C)(CS(=O)(=O)[O-])NC(=O)CC[N+](C)(C)CCO,inactive,–
CC(C)[C@@H]1NC(=O)c2cc([N+](=O)[O-])cc(I)c2NCC[C@@H](C(N)=O)NC(=O)[C@H](CO)NC1=O,"inconclusive: 10 µM [quencher, side channel, partial curve]",–
CC(C)Cc1c2c([nH]c(=S)c1C#N)CCCC2,–,inactive: 9.35% [at 11.5 µM]
Cc1ccc(N2CC(C(=O)NCC3CCCO3)CC2=O)cc1Cl (configuration not stated),inactive,–
Cc1ccc(C)c(OCCn2cc(/C=C(\C#N)C(=O)NCC3CCCO3)c3ccccc32)c1 (configuration not stated),inactive,–
CC(C)C(=O)Nc1ccc(NC(=S)NC(=O)c2ccc([N+](=O)[O-])cc2)cc1,"inconclusive: 8.91 µM [quencher, partial curve]",–
Cn1cnnc1Sc1cc(N2CCN(S(=O)(=O)c3ccc(Cl)c(Cl)c3)CC2)ccc1[N+](=O)[O-],"inconclusive: 35.5 µM [quencher, side channel, partial curve]",–
CCCS(=O)(=O)c1nnnn1-c1cccc(OC)c1,inactive,–

# Reference: PubChem BioAssay AID2675 (National Center for Advancing Translational Sciences (NCATS), 2010)
